Laboratory results: PubChem BioAssay AID651820 (National Center for Advancing Translational Sciences (NCATS), 2012)
The campaign covered roughly 340,000 compounds. About 12,000 (3.5%) were called active. The inconclusive results got no clear call from the source; some entries with a clear call stand among them for comparison. The call rests on the fitted dose curve; in most records, active means well fitted inhibition curve with a large enough effect; inconclusive means small, poorly fitted or top-dose-only effect, or another doubt; inactive means no such curve, though single readings can be large or run the other way. No potency is given beside an inconclusive call; the fits are too rough. More than one record can exist for a structure, and the calls need not agree.

Assay: qHTS Assay for Inhibitors of Hepatitis C Virus (HCV)
Conditions: Huh7.5.1 HCVcc-Cre (HCVcc is cell-culture hepatitis C virus) infection, luciferase reporter, 44 h; activity change, negative = inhibition: at 41.8 µM (top of the series) unless noted
Summary of the method: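 Infectious HCVcc-Cre (~0.5 moi) was added to cells just after compound, with cells seeded 4 h earlier at 1,000 per well. Luciferase activity after 44 h culture reported infection; substrate was incubated 15 min at room temperature before reading.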
On the % scale 0 is the no-effect control and ±100 the full control effect; potency means the concentration at half of the fitted maximal effect; tags describe the fitted curve by direction and shape.

Structure (SMILES)	Potency	activity change, negative = inhibition
Fc1ccc2nc3n(c2c1F)CCCCCC3	inconclusive [inhibitor, partial curve]	
COc1ccc(NC(=O)c2cccnc2Nc2ccccc2)cc1	inconclusive [inhibitor, single point]	
C/C(=N/NC(=O)c1ccccc1O)c1ccc(N2C(=O)C3CCCCC3C2=O)cc1 (stereo unspecified)	inactive	
CCOC(=O)/C(=C\C=C\c1ccccc1)NC(=O)c1ccccc1	inconclusive [inhibitor, single point]	
CCOc1ccc(NC(=O)CN(C)C(=O)c2cc(C3CC3)nn2-c2ccccc2)cc1OCC	inactive	
Cc1ccc2c(c1)C1CN(C)CCC1N2C(=O)CCCN1C(=O)c2cccc3cccc(c23)C1=O (stereo unspecified)	inconclusive [inhibitor, full curve]	
c1ccc(CCNc2ncnc3nc[nH]c23)cc1	inconclusive [inhibitor, full curve, poor fit]	
Cn1c(SCC(=O)Nc2ccccc2C(F)(F)F)nc2c(c1=O)SCC2	inconclusive [inhibitor, single point]	
Clc1nc(-c2ccccn2)nc2scc(-c3ccccc3)c12	inconclusive [inhibitor, partial curve]	
CCN(CC)CCN1C(=O)C(=O)/C(=C(/O)c2ccc(S(=O)(=O)N3CCOCC3)cc2)C1c1ccc(C)cc1 (stereo unspecified)	inactive	
COc1ccc(-c2cc([N+](=O)[O-])ccc2OCC(=O)N(C)CC(=O)Nc2ccc(C)cc2)cc1	inconclusive [inhibitor, partial curve]	
CN(CCC1CCOCC1)C(=O)C1CCC(=O)N(CCc2cccc(F)c2)C1 (stereo unspecified)	inactive	
CN1CCN(C(c2ccccc2)c2ccccc2)CC1	inconclusive [inhibitor, full curve]	
CN(C)CCCN(C(=O)COc1ccccc1)c1nc2c(Cl)cccc2s1	inconclusive [inhibitor, single point]	
C/C(N)=C(/C#N)C(=O)CSc1nnc(-c2ccccc2Br)o1	inactive	
Fc1ccc(-c2nn(-c3ccccc3)cc2CNCc2ccccc2)cc1	inconclusive [inhibitor, single point]	
O=c1[nH]c(-c2ccc(F)cc2)nc2c1sc(=S)n2-c1ccccc1	inconclusive [inhibitor, single point]	
CSc1nc(N)c(C#N)c(-c2ccccc2Cl)c1C#N	inconclusive [inhibitor, single point]	
CC(C(=O)Nc1ccccc1)c1ccc(-c2ccccc2)c(F)c1 (stereo unspecified)	inconclusive [inhibitor, partial curve, poor fit]	
CCCCCOC(=O)c1cc(=O)[nH]c2ccccc12	inactive	
O=C(NCc1cccs1)C1CCC(CNS(=O)(=O)c2ccc(Br)s2)CC1 (stereo unspecified)	inactive	
c1ccc(-c2ccccc2-c2nc(-c3ccncc3)no2)cc1	inconclusive [inhibitor, single point]	
O=c1c2ccccc2nc(SCCN2CCCCC2)n1CCc1ccccc1	inconclusive [inhibitor, single point]	
COc1ccc(OCC(=O)NCCCCCCNC(=O)COc2ccc(OC)cc2)cc1	inactive	

Structure (SMILES)	Potency	activity change, negative = inhibition
CCC1(C)NC(=O)N(CC(=O)Nc2sc3c(c2C(=O)OC)CCCCC3)C1=O (stereo unspecified)	inconclusive [inhibitor, partial curve]	
O=[N+]([O-])c1ccc(/C=N/Nc2nc(N3CCCCCC3)nc(N3CCCCCC3)n2)o1	inconclusive [inhibitor, single point]	
CCOc1cc(/C=N/O)cc(Cl)c1OC	active: 11.2 µM	
CCCCn1c(SCC(=O)/C(C#N)=C(\C)N)nc2ccccc2c1=O	inconclusive [inhibitor, single point]	
COc1ccc(-c2noc(-c3ccccc3C(=O)Nc3cccnc3)n2)cc1OC	active: 8.91 µM	
CCc1ccc(C2=CC(c3cc(Br)ccc3F)n3ncnc3N2)cc1 (stereo unspecified)	inconclusive [inhibitor, partial curve]	
CCOc1ccccc1NC(=O)CN(C)S(=O)(=O)c1ccc2[nH]c(=O)oc2c1	inactive	
COc1cccc(C(=O)NCCSCc2ccccc2Cl)c1	inconclusive [inhibitor, single point]	
CC(=O)N1CCc2c(sc(NC(=O)c3ccc4c(c3)OCCO4)c2C#N)C1	active: 2.82 µM	
CCNS(=O)(=O)c1ccc(NC(=O)c2cccnc2)cc1	inactive	
C[C@H](C[C@H](O)[C@H]1OC1(C)C)C1=C2C[C@H](O)C3[C@@]4(C)CCC(=O)C(C)(C)C4CC[C@]3(C)[C@@]2(C)CC1 (stereo partly specified)	inconclusive [inhibitor, single point]	
CC12CCC(=O)N1C(C(=O)NCCN1C(=O)S/C(=C\c3ccccc3Cl)C1=O)CS2 (stereo unspecified)	inconclusive [inhibitor, single point]	
CCCCCC(=O)N/N=C(\C)c1ccccn1	inconclusive [inhibitor, full curve]	
CCOc1ccc2nc(Cl)c(C3CC(c4ccco4)=NN3S(C)(=O)=O)cc2c1 (stereo unspecified)	inconclusive [inhibitor, single point]	
Cc1nc2c3cc(F)ccc3n(Cc3ccccc3)c2s1	inconclusive [inhibitor, partial curve]	
Cc1ccc(C)c(-c2nnc(NC(=O)c3ccc([N+](=O)[O-])o3)o2)c1	inconclusive [inhibitor, partial curve]	
O=C(CSc1nccn1-c1cccc(F)c1)NC1CCCC1	inactive	
CC(Nc1ccccc1CO)C(=O)Nc1cccc(Cl)c1Cl (stereo unspecified)	inconclusive [inhibitor, partial curve]	
Cc1cc(C)c2[nH]c(=O)c(C(c3nnnn3Cc3ccc4c(c3)OCO4)N3CCCCC3)cc2c1 (stereo unspecified)	inactive	
N#CC1=C(N)Oc2cc(N)ccc2C1c1ccccc1F (stereo unspecified)	inconclusive [inhibitor, partial curve]	
Cc1cc(Nc2ccc(C)c(C)c2)c2ccccc2n1	inconclusive [inhibitor, single point]	
O=C(N/N=C/c1ccc([N+](=O)[O-])o1)c1cc2c(ccc3ccccc32)o1	inconclusive [inhibitor, single point]	
C[C@@H]1O[C@@H](O[C@H]2C[C@@H](O)[C@]3(CO)[C@H]4[C@H](O)C[C@]5(C)[C@@H](C6COC(=O)C6)CC[C@]5(O)[C@@H]4CC[C@]3(O)C2)[C@H](O)[C@H](O)[C@H]1O (stereo partly specified)	active: 1 µM	inactive: 2.73% [at 8.37 µM]
O=C(c1cn(-c2ccccc2)nc1-c1ccc(F)cc1)N1CCCCC1	inconclusive [inhibitor, partial curve]	

Structure (SMILES)	Potency	activity change, negative = inhibition
COc1cc(NC(=O)SC2=NCCS2)cc(OC)c1	inconclusive [inhibitor, single point]	
O=C(CSc1nnc(Cn2nnc3ccccc32)o1)Nc1cccc(Cl)c1	inactive	
CCOC(=O)C1=NNC(C(=O)c2ccc(C)cc2)C1c1ccc(OC)cc1 (stereo unspecified)	inactive	
CCCCN1CC(COc2ccccc2)Oc2cccc(F)c2S1(=O)=O (stereo unspecified)	inconclusive [inhibitor, single point]	
COc1ccc2nc(C(F)(F)C(F)(F)F)c(C#N)c(N)c2c1	inactive	
Nc1c2c(nc3c1CCCC3)CCCC2 (tested in a mixture with another compound)	inactive	
Cc1cccn2cc(-c3ccccc3)nc12	inactive	
FC(F)(F)c1cccc(-c2nnc3ccc(C(F)(F)F)cn23)c1	inconclusive [inhibitor, partial curve]	
Cc1cccc(C(=O)Nc2ccc(O)c3c(=O)cc(-c4ccccc4Cl)oc23)c1	inconclusive [inhibitor, single point]	
CCCC(C)NC(=O)C1CC(=O)N(CCc2ccc(F)cc2)C1 (stereo unspecified)	inactive	
CCOC(=O)c1cc(CC)sc1NC(=O)c1cc(OC)c(OC)c(OC)c1	inconclusive [inhibitor, full curve]	
Cc1ccc(OCc2cc(C(=O)N(C)Cc3cnc4ccccn34)no2)cc1C	active: 11.2 µM	
CC(=O)Nc1ccc2c(c1)Cc1c-2cc(Br)c(N)c1Br	active: 11.2 µM	
COc1ccc(S(=O)(=O)N(C)C)cc1NC(=O)COC(=O)C1CC1	inactive	
Cc1cc(-c2cccc(Br)c2)c(C#N)c(N)n1	inconclusive [inhibitor, single point]	
O=C(COC(=O)c1cccc(Cl)c1Cl)NCc1cccs1	inconclusive [inhibitor, partial curve]	
O=C(Nc1ccc(-c2ccccc2)cc1)c1ccc2c(c1)S(=O)(=O)c1ccccc1C2=O	inconclusive [inhibitor, full curve, poor fit]	
Cn1c(=O)c2c(nc(OCc3ccccc3)n2C)n(C)c1=O	inconclusive [inhibitor, partial curve]	
Nc1nc(NC(=O)c2ccccc2)nn1-c1ccccc1	inactive	
CCCCn1c(N)c(N(CCOC)C(=O)C2CCN(c3ncnc4sc(C)c(C)c34)CC2)c(=O)[nH]c1=O		inconclusive: -42.1% [inhibitor]
COc1ccc(N2CCN(C(=O)c3ccc(N4C(=O)NC5CC4(C)Oc4ccccc45)cc3)CC2)cc1 (stereo unspecified)	inconclusive [inhibitor, single point]	
COc1cc(OC)c2c(-c3cccc(-c4ccc(NC(C)=O)cc4)c3)cc(=O)oc2c1	inconclusive [inhibitor, full curve, poor fit]	
